The source gives many values for each of these; only a part stands here.
Assay: xn = mol fraction of the nth substance listed

OC[C@@H](O)[C@@H](O)[C@H](O)[C@@H](O)CO + O
Settings | viscosity [mPa·s]
293.15 K, 101.3 kPa, x1 = 0.00359 | 1.12
293.15 K, 101.3 kPa, x1 = 0.01421 | 1.46
293.15 K, 101.3 kPa, x1 = 0.02631 | 1.95
293.15 K, 101.3 kPa, x1 = 0.03478 | 2.49
293.15 K, 101.3 kPa, x1 = 0.0431 | 3.07
293.15 K, 101.3 kPa, x1 = 0.05127 | 3.84
298.15 K, 101 kPa, x1 = 0.009077 | 1.258
298.15 K, 101 kPa, x1 = 0.01769 | 1.612
298.15 K, 101 kPa, x1 = 0.03395 | 2.329
298.15 K, 101 kPa, x1 = 0.05124 | 3.435
298.15 K, 101 kPa, x1 = 0.06722 | 5.221
298.15 K, 101 kPa, x1 = 0.08259 | 7.896
298.15 K, 101 kPa, x1 = 0.09747 | 11.28
303.15 K, 101.3 kPa, x1 = 0.00359 | 0.89
303.15 K, 101.3 kPa, x1 = 0.007156 | 0.95
303.15 K, 101.3 kPa, x1 = 0.01769 | 1.22
303.15 K, 101.3 kPa, x1 = 0.02631 | 1.48
303.15 K, 101.3 kPa, x1 = 0.03478 | 1.86
303.15 K, 101.3 kPa, x1 = 0.0431 | 2.25
303.15 K, 101.3 kPa, x1 = 0.05127 | 2.77
305.15 K, 100 kPa, x1 = 0.0001 | 0.8234
310.15 K, 100 kPa, x1 = 0.0001 | 0.7795
313.15 K, 101.3 kPa, x1 = 0.00359 | 0.72
313.15 K, 101.3 kPa, x1 = 0.007156 | 0.77
313.15 K, 101.3 kPa, x1 = 0.01069 | 0.83
313.15 K, 101.3 kPa, x1 = 0.01421 | 0.9
313.15 K, 101.3 kPa, x1 = 0.01769 | 0.98
313.15 K, 101.3 kPa, x1 = 0.02631 | 1.15
313.15 K, 101.3 kPa, x1 = 0.03478 | 1.4
313.15 K, 101.3 kPa, x1 = 0.0431 | 1.69
313.15 K, 101.3 kPa, x1 = 0.05127 | 2.04
315.15 K, 100 kPa, x1 = 0.0001 | 0.7592
323.15 K, 101.3 kPa, x1 = 0.00359 | 0.6
323.15 K, 101.3 kPa, x1 = 0.01069 | 0.69
323.15 K, 101.3 kPa, x1 = 0.01421 | 0.75
323.15 K, 101.3 kPa, x1 = 0.01769 | 0.81
323.15 K, 101.3 kPa, x1 = 0.02631 | 0.93
323.15 K, 101.3 kPa, x1 = 0.03478 | 1.15
323.15 K, 101.3 kPa, x1 = 0.0431 | 1.32
323.15 K, 101.3 kPa, x1 = 0.05127 | 1.58

— the CheMixHub viscosity set
